The supplement of paper PMC6531468
Some of the results follow. Values come from read counts of a selection and are noisy. Scores sum up all selected molecules that hold the word; the word was not tested alone.

Assays:
Assay in all cases: 6-mer SELEX enrichment z-score vs GST control; IMP3 is the RNA-binding protein IGF2BP3; higher = more enriched by binding
IMP3 KH1-4 = details: construct: KH1-4 (164-579); SELEX round: R4
Experimental: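 SELEX-seq with GST-tagged IMP3 KH1-4 (Pro164-Lys579) and an N40 RNA pool, round 4. 6-mer z-score of sequence-tag enrichment normalised to the corresponding GST SELEX round; RNA k-mers written as DNA (T for U).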

IMP3 RRM1-2 = details: construct: RRM1-2 (1-163); SELEX round: R2
Experimental: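 SELEX-seq with GST-tagged IMP3 RRM1-2 (Met1-Asn163) and an N40 RNA pool, round 2. 6-mer enrichment z-score normalised to GST SELEX. RNA written as DNA (T = U).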

IMP3 full-length = IMP3 full-length (UniProt O00425); details: construct: FL IMP3 (1-579); SELEX round: R4
Experimental: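 SELEX-seq with GST-tagged full-length IMP3 and an N40 RNA pool, round 4. Each 6-mer is scored as an enrichment z-score of sequence tags containing it, normalised to the matching GST SELEX round. RNA written as DNA (T = U).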

IMP3 KH1-2 = details: construct: KH1-2 (164-376); SELEX round: R4
Experimental: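 SELEX-seq with GST-tagged IMP3 KH1-2 (Pro164-Phe376) and an N40 RNA pool, round 4 (stringent 300/600 mM KCl washes). 6-mer z-score of sequence-tag enrichment normalised to the corresponding GST SELEX round; RNA k-mers written as DNA (T for U).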

IMP3 KH3-4 = details: construct: KH3-4 (377-579); SELEX round: R4
Experimental: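 SELEX-seq with GST-tagged IMP3 KH3-4 (Pro377-Lys579) and an N40 RNA pool, round 4. 6-mer z-score of sequence-tag enrichment normalised to the corresponding GST SELEX round; RNA k-mers written as DNA (T for U).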

Sequence of IMP3 KH1-2 (chain, as listed by the source): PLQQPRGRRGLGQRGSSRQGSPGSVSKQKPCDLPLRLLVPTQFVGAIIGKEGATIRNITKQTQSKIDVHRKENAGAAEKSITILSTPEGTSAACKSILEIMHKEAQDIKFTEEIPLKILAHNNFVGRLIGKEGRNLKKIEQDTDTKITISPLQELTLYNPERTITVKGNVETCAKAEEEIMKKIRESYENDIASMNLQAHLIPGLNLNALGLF
Sequence of IMP3 KH3-4 (chain, as listed by the source): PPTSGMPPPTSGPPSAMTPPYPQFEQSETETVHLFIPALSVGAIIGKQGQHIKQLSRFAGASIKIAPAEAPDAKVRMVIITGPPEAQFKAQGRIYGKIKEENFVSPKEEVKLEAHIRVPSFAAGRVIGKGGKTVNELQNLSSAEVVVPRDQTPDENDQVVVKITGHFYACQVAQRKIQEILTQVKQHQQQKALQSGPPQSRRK
Sequence of IMP3 RRM1-2 (chain, as listed by the source): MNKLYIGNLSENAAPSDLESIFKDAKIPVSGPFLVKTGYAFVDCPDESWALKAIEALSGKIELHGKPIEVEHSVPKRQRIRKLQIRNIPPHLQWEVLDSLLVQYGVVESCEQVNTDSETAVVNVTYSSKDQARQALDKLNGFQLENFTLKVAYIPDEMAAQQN
Sequence of IMP3 KH1-4 (chain, as listed by the source): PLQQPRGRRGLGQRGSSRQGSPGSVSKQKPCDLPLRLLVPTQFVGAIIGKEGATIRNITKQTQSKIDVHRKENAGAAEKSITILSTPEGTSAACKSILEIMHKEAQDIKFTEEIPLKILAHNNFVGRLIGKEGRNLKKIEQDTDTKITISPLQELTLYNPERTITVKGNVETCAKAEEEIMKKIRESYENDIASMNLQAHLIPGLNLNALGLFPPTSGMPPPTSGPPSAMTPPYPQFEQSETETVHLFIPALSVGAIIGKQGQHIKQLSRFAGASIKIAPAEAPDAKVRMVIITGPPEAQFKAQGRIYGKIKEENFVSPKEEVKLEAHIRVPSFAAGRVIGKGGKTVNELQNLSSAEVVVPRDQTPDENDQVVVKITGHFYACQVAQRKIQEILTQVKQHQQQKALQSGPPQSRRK
Sequence of UniProt O00425 (O00425 whole entry): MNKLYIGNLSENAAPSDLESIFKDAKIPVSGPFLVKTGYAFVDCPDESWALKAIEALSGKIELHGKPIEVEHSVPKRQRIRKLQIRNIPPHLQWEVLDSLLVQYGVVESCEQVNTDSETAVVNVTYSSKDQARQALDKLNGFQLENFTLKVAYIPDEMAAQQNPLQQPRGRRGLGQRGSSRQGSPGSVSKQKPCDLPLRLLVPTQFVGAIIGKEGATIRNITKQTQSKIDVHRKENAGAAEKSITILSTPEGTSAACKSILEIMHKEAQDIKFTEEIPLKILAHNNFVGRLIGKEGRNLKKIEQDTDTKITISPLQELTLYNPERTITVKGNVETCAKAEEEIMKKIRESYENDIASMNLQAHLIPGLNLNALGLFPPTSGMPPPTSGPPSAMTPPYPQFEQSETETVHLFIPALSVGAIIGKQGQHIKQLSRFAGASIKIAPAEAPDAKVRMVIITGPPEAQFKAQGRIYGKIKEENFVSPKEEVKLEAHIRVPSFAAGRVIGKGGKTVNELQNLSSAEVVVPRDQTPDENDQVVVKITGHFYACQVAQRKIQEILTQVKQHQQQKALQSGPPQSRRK

Sequence | 6-mer SELEX enrichment z-score (IMP3 KH1-4) | 6-mer SELEX enrichment z-score (IMP3 RRM1-2) | 6-mer SELEX enrichment z-score (IMP3 full-length) | 6-mer SELEX enrichment z-score (IMP3 KH1-2) | 6-mer SELEX enrichment z-score (IMP3 KH3-4)
ACAGAC | 0.321 | 0.804 | 0.74 | 0.753 | -0.022
CAGGTC | 0.327 | 0.516 | 0.94 | 0.147 | 0.076
TCACTC | 0.234 | 1.38 | 0.542 | 0.232 | -0.177
GATCAC | 0.506 | 2.17 | 1.07 | 0.333 | 0.14
TGTCTT | -0.128 | 0.477 | 0.053 | -0.054 | 0.054
ATCCAC | -0.506 | 0.396 | -0.528 | -0.493 | -1.13
GTGGCA | 0.959 | 0.26 | 1.2 | 0.727 | 0.881
CGGTCT | -0.112 | 0.224 | 0.172 | -0.081 | 0.035
TCGGCG | 0.264 | 0.466 | 1.31 | 0.277 | 0.442
CGCCAC | 0.518 | -0.022 | 0.717 | 0.403 | -0.42
AGCGGG | -0.429 | -0.319 | 0.375 | -0.187 | -0.046
CCGACT | -1.22 | -0.687 | -1.04 | -0.997 | -1.32
TTAATG | 0.925 | -0.238 | -0.172 | 0.643 | 1.41
ACCACC | -0.605 | -0.084 | -0.839 | -0.516 | -1.67
GTGTAT | -0.139 | 0.196 | -0.217 | -0.13 | 0.114
CGAATT | -0.13 | -0.566 | -0.499 | -0.134 | 0.074
AGGCAT | 1.19 | 0.692 | 2.1 | 0.609 | 0.84
ACCTAG | -1.16 | -0.563 | -1.09 | -1.15 | -1.18
TCTGGA | -0.161 | 0.011 | -0.024 | -0.136 | -0.084
CCCCGG | -0.776 | -0.811 | -0.027 | -0.357 | -1.1

Sequence | 6-mer SELEX enrichment z-score (IMP3 KH1-4) | 6-mer SELEX enrichment z-score (IMP3 RRM1-2) | 6-mer SELEX enrichment z-score (IMP3 full-length) | 6-mer SELEX enrichment z-score (IMP3 KH1-2) | 6-mer SELEX enrichment z-score (IMP3 KH3-4)
GAGAAC | -0.314 | -1.21 | -0.741 | -0.31 | -0.217
CCAAGT | -0.703 | -0.381 | -0.531 | -0.748 | -0.856
AGGTGG | 0.682 | 0.075 | 0.499 | 0.701 | 0.745
TAGCCC | -0.602 | -0.449 | -0.699 | -0.571 | -0.886
ATATCC | -0.314 | -0.265 | -0.643 | -0.254 | -0.499
GGATAA | 0.624 | -0.752 | -0.315 | 0.394 | 0.995
GACCAT | 0.182 | 0.787 | 0.055 | 0.044 | -0.114
CCTCGG | -0.662 | 0.118 | 0.271 | -0.54 | -0.682
AATCCC | -0.661 | -1.07 | -1.42 | -0.654 | -1.45
GCAGGA | 0.9 | 0.155 | 0.931 | 0.765 | 0.697
GGACCG | -0.203 | -0.881 | 0.007 | -0.271 | -0.581
TGACGG | -0.011 | -0.46 | 0.037 | -0.136 | -0.022
CGGGTT | -0.335 | 0.194 | 0.049 | -0.191 | -0.04
GGTCGC | 0.397 | 0.373 | 0.728 | 0.419 | 0.324
TGCAAC | 0.431 | 0.313 | 0.475 | 0.235 | -0.076
TGTGCG | 0.027 | 0.183 | -0.091 | -0.116 | 0.055
GCCGTC | -0.244 | 0.176 | 0.675 | -0.141 | -0.342
AAACTC | -1.27 | -0.466 | -1.42 | -1.02 | -1.53
AATTAT | 1.6 | -0.246 | 0.183 | 1.4 | 2.41
CTGAAC | -0.657 | -0.779 | -0.853 | -0.545 | -0.915

Sequence | 6-mer SELEX enrichment z-score (IMP3 KH1-4) | 6-mer SELEX enrichment z-score (IMP3 RRM1-2) | 6-mer SELEX enrichment z-score (IMP3 full-length) | 6-mer SELEX enrichment z-score (IMP3 KH1-2) | 6-mer SELEX enrichment z-score (IMP3 KH3-4)
CTGCAG | 0.418 | 0.172 | 0.495 | 0.478 | 0.075
AGGGGA | 1.16 | -0.28 | 0.121 | 1.32 | 1.16
AGCTCA | -0.35 | 0.462 | 0.334 | -0.23 | -0.321
GGGAGG | 1.2 | -0.098 | 0.712 | 1.62 | 1.14
CCCCTG | -0.43 | -0.579 | -0.825 | -0.29 | -0.985
TTGTGG | 0.297 | 0.321 | 0.034 | 0.194 | 0.444
ATGGTA | -0.071 | 0.153 | 0.017 | -0.136 | 0.048
GGTTTG | 0.011 | 0.338 | 0.002 | 0.031 | 0.222
ACCGTG | -0.553 | -0.681 | -0.439 | -0.59 | -0.929
GACTAT | 0.453 | -0.243 | -0.288 | 0.443 | 0.737
CCTATG | -0.159 | -0.243 | -0.542 | -0.279 | -0.339
TACGCT | 0.344 | 0.046 | 0.04 | 0.338 | 0.264
TTGTCT | -0.018 | 0.458 | 0.12 | -0.027 | 0.126
TCGAAG | -1.1 | -0.453 | -0.701 | -1.01 | -0.841
ATGTGG | 0.792 | 0.162 | 0.253 | 0.55 | 0.829
TCTCAC | 0.043 | 0.784 | 0.273 | 0.14 | -0.356
AGATTC | 0.554 | -0.031 | 0.18 | 0.54 | 0.605
GGTGAC | -0.261 | -0.237 | 0.09 | -0.213 | -0.195
TAAACA | 1.29 | 0.398 | 0.157 | 1.43 | 2.1
TGCCGC | 0.351 | -0.038 | 0.235 | 0.467 | -0.139
